Assay results taken from the antibiotic and cytotoxicity screens of Wong et al. (2023).
The other results are listed elsewhere or left out.

Test system: HSkMC (human skeletal muscle cells)
Assay: cytotoxicity call (relative viability < 0.9)
Settings: 10 µM

| Compound | cytotoxicity call |
| --- | --- |
| COc1ccc(-c2ccc3c(c2)O[C@H](CN(C)CC2CCOCC2)[C@H](C)CN([C@H](C)CO)S3(=O)=O)cc1 | inactive |
| C[C@H](CO)N1C[C@H](C)[C@@H](CN(C)C(=O)Nc2ccc(C(F)(F)F)cc2)Oc2ccc(NC(=O)Nc3ccc(C(F)(F)F)cc3)cc2C1=O | inactive |
| COc1ccc(NC(=O)N(C)C[C@H]2Oc3ccc(NC(=O)Nc4cccc5ccccc45)cc3CC(=O)N([C@H](C)CO)C[C@H]2C)cc1 | inactive |
| NCC[C@H]1CC[C@H](NC(=O)Nc2ccc(F)cc2)[C@@H](CO)O1 | inactive |
| CN(C)CCCNC(=O)C[C@H]1CC[C@@H]2[C@H](COc3ccc(NC(=O)NC4CCCC4)cc3C(=O)N2C)O1 | inactive |
| C[C@@H]1CN([C@@H](C)CO)C(=O)c2cc(NC(=O)Nc3ccc(C(F)(F)F)cc3)ccc2O[C@H]1CN(C)Cc1ccccc1 | active |
| CCC(=O)NNC(=O)c1cccc(O)c1 | inactive |
| Cc1noc(C)c1NC(=O)N(C)C[C@@H]1Oc2ccc(NS(=O)(=O)c3c(C)noc3C)cc2CC(=O)N([C@H](C)CO)C[C@H]1C | inactive |
| COc1ccc(S(=O)(=O)N(C)C[C@@H]2OCCCC[C@H](C)Oc3ccc(NC(=O)C4CCCCC4)cc3C(=O)N([C@@H](C)CO)C[C@H]2C)cc1 | inactive |
| C[C@H]1CN([C@@H](C)CO)C(=O)CCCn2nncc2CO[C@@H]1CN(C)S(=O)(=O)c1ccc(Cl)cc1 | inactive |
| CN1C(=O)c2cc(NC(=O)C3CCOCC3)ccc2OC[C@@H]2O[C@@H](CC(=O)NCCc3ccncc3)CC[C@H]21 | inactive |
| Cc1noc(C)c1S(=O)(=O)Nc1ccc2c(c1)C(=O)N([C@@H](C)CO)C[C@H](C)[C@@H](CN(C)C(=O)Nc1ccc(F)cc1)OCCCC[C@H](C)O2 | inactive |
| C=CCNS(=O)(=O)c1cccc2nonc12 | inactive |
| CCN1[C@@H]2O[C@@H]3O[C@H]4[C@H](O[C@H]3O[C@@H]2N(CC)S1(=O)=O)N(CC)S(=O)(=O)N4CC | inactive |
| CN(CC(=O)O)C(=N)N | inactive |
| Cc1noc(C)c1NC(=O)N(C)C[C@@H]1Oc2ccc(NS(=O)(=O)c3c(C)noc3C)cc2CC(=O)N([C@H](C)CO)C[C@@H]1C | inactive |
| C[C@H](CO)N1C[C@H](C)[C@H](CN(C)S(C)(=O)=O)Oc2ccc(NC(=O)CCC(F)(F)F)cc2CC1=O | inactive |
| C[C@H](CO)N1C[C@H](C)[C@H](CN(C)C(=O)CCC(F)(F)F)OCCCC[C@H](C)Oc2ccc(NS(=O)(=O)c3ccc(F)cc3)cc2C1=O | inactive |
| C[C@@H]1CN([C@@H](C)CO)C(=O)CCCn2nncc2CO[C@@H]1CN(C)C(=O)Nc1ccc2c(c1)OCO2 | inactive |
| CC1(C)OC2CC3C4CCC5=CC(=O)C=CC5(C)C4C(O)CC3(C)C2(C(=O)CO)O1 (stereo not given) | inactive |

| Compound | cytotoxicity call |
| --- | --- |
| C[C@H]1CCCCO[C@H](CN(C)C(=O)Nc2cccc3ccccc23)[C@@H](C)CN([C@@H](C)CO)C(=O)c2cc(NS(=O)(=O)c3ccc(F)cc3)ccc2O1 | active |
| N[C@@H]1[C@H]2CN(c3nc4c(cc3F)c(=O)c(C(=O)O)cn4-c3ccc(F)cc3F)C[C@@H]12 | inactive |
| COc1ccc2c3c([nH]c2c1)[C@@H](CO)N(CC1CCOCC1)C[C@]13CCN(CC1)C(=O)C1CCOCC1 | inactive |
| COc1ccc(NC(=O)Nc2ccc3c(c2)C(=O)N([C@@H](C)CO)C[C@@H](C)[C@@H](CN(C)C(=O)Nc2ccc4c(c2)OCO4)OCCCC[C@@H](C)O3)cc1 | inactive |
| C[C@@H]1CN([C@H](C)CO)C(=O)c2cccc(NC(=O)NC3CCCCC3)c2O[C@@H]1CN(C)Cc1ccc(Oc2ccccc2)cc1 | inactive |
| COCC(=O)N1C[C@]2(C1)CN([C@H](CO)c1c2c2ccc(cc2n1C)OC)C(=O)CN1CCOCC1 | inactive |
| Cc1nnc(Nc2cccc([C@H]3CCCN(C(=O)CN)C3)n2)s1 | inactive |
| Cn1c(=O)c2c(nc3n2CC=NN3)n(C)c1=O | inactive |
| C[C@H](CO)N1C[C@H](C)[C@H](CN(C)Cc2ccccc2)Oc2ccc(NC(=O)CCN3CCOCC3)cc2C1=O | inactive |
| C=CCN1C[C@H](C(=O)O)CC1=O | inactive |
| C[C@H](CO)N1C[C@H](C)[C@@H](CN(C)Cc2ccc(C(=O)Nc3ccccc3N)cc2)Oc2c(NS(C)(=O)=O)cccc2C1=O | inactive |
| C[C@@H]1CN([C@@H](C)CO)C(=O)c2cc(NC(=O)CCN3CCOCC3)ccc2O[C@@H]1CN(C)Cc1ccc2c(c1)OCO2 | inactive |
| COc1ccc2c3c([nH]c2c1)[C@H](CO)N(C[C@]13CCN(CC1)C(=O)c1ccccc1F)C(=O)Nc1ccccc1F | inactive |
| Cc1ccc(S(=O)(=O)Nc2ccc3c(c2)C(=O)N([C@@H](C)CO)C[C@@H](C)[C@H](CN(C)S(C)(=O)=O)O3)cc1 | inactive |
| C[C@@H]1CN([C@@H](C)CO)S(=O)(=O)c2ccc(-c3cncnc3)cc2O[C@@H]1CN(C)C(=O)c1ccc2c(c1)OCO2 | inactive |
| C[C@@H]1CCCCO[C@@H](CN(C)C(=O)C2CCCCC2)[C@@H](C)CN([C@H](C)CO)C(=O)c2cc(NS(=O)(=O)c3cccs3)ccc2O1 | inactive |
| C[C@H]1CN([C@@H](C)CO)C(=O)c2cc(NS(=O)(=O)c3ccccc3)ccc2O[C@@H]1CN(C)Cc1ccc(Oc2ccccc2)cc1 | inactive |
| C[C@@H]1CN([C@@H](C)CO)C(=O)c2c(c3ccccc3n2C)-c2ccccc2CO[C@H]1CN(C)Cc1ccc(F)cc1 | inactive |
| Nc1cc(Cl)ncn1 | inactive |
| CCS(=O)(=O)Nc1ccc2c(c1)C(=O)N(C)[C@H]1CC[C@@H](CC(=O)NCCCN3CCOCC3)O[C@H]1CO2 | inactive |
